{"source": "PubChem BioAssay AID686978", "about": "(National Center for Advancing Translational Sciences (NCATS), 2013)", "note": "Hit rate of the full screen: of about 420,000 compounds, about 64,000 (15%) were called active. The shares of active, inactive and inconclusive entries below differ from those in the screen. The call rests on the fitted dose curve; in most records, active means well fitted inhibition curve with a large enough effect; inconclusive means small, poorly fitted or top-dose-only effect; inactive means flat fitted curve, though single readings scatter. Potencies of inconclusive entries are left out as doubtful fits. Potency means the concentration at half of the fitted maximal effect; tags describe the fitted curve by direction and shape.", "data": [{"assay": "qHTS for Inhibitors of human tyrosyl-DNA phosphodiesterase 1 (TDP1): qHTS in cells in absence of CPT; further: nearly all actives have a fitted effect of over 55% in size", "details": "DT40 Tdp1-/- hTDP1 cells, no CPT, ATP luminescence, 48 h; series mostly up to 46.2 µM", "how_it_was_run": "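Readout: luminescence from CellTiter-Glo after 30 min in the dark at RT. Cells: DT40 Tdp1-/- with stable hTDP1, 400/well. Exposure: compounds alone, ≥48 hr, 37 °C.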", "values": [{"smiles": "COC(=O)CNC(=O)C1Nc2ccc(OC(F)(F)F)cc2C2C=CCC12", "note": "(stereo not given)", "Potency": "inconclusive [inhibitor, single point]"}, {"smiles": "COc1cccc(-n2c(SCc3cc(=O)oc4cc(O)c(O)cc34)nc3ccccc3c2=O)c1", "Potency": "inconclusive [inhibitor, single point]"}, {"smiles": "C=CCn1c(=NC(=O)c2ccccc2[N+](=O)[O-])sc2cc(S(C)(=O)=O)ccc21", "Potency": "active: 20.6 µM"}, {"smiles": "CC(=NNc1nc2ccccc2o1)c1cc2ccccc2cn1", "Potency": "active: 0.13 µM"}, {"smiles": "O=C(N/N=C/c1ccccc1F)C(=O)N1CCCCCC1", "Potency": "inactive"}, {"smiles": "COc1ccccc1-n1cnnc1SC(C)C(=O)Nc1cccc([N+](=O)[O-])c1", "note": "(stereo not given)", "Potency": "inconclusive [inhibitor, single point]"}, {"smiles": "Cc1cc(NC(=O)C(C)SCC(=O)N(C)CC(=O)Nc2ccc(F)cc2)no1", "note": "(stereo not given)", "Potency": "inactive"}, {"smiles": "COc1ccc(Cn2nnnc2C(c2ccccc2)N2CCN(C3CCCC3)CC2)cc1", "note": "(stereo not given)", "Potency": "inconclusive [inhibitor, partial curve]"}, {"smiles": "COc1ccc(Nc2nc(N3CCOCC3)nc(N3CCOCC3)n2)cc1Cl", "Potency": "active: 20.6 µM"}, {"smiles": "O=c1c(-c2ccccc2)nc2cncnc2n1Cc1ccccc1", "Potency": "inconclusive [inhibitor, single point]"}, {"smiles": "COc1ccc(NC(=O)C(=O)NCCN2CCN(C(=O)c3cccc(Br)c3)CC2)cc1", "Potency": "inconclusive [inhibitor, partial curve]"}, {"smiles": "COc1ccc(-c2coc3c(C(=O)NCC4CCOCC4)cccc23)c(C)c1", "Potency": "active: 10.3 µM"}, {"smiles": "CCc1ccc(C(=O)c2cn(Cc3ccccc3)c3cc(OC)c(OC)cc3c2=O)cc1", "Potency": "active: 16.4 µM"}, {"smiles": "COC(=O)c1ccc(COC(=O)c2ccc(N(C)C)cc2)cc1", "Potency": "inconclusive [inhibitor, partial curve, poor fit]"}, {"smiles": "CCOc1ccccc1Nc1nc(N)nc(CN(C)C2CCCCC2)n1", "Potency": "inconclusive [inhibitor, partial curve]"}, {"smiles": "Cc1ccccc1N=Nc1ccc(O)c2ncccc12", "Potency": "active: 1.64 µM"}, {"smiles": "CN(/N=C/c1ccc(O)cc1O)c1ncc(C(F)(F)F)cc1Cl", "Potency": "inconclusive [inhibitor, single point]"}, {"smiles": "O=C(Nc1ccc(F)cc1)c1ccc(CSc2ccc(Cl)cc2)o1", "Potency": "inconclusive [inhibitor, partial curve]"}, {"smiles": "CCOC(=O)c1cc2c(c(CCO)n1)[C@@H](CCO)N(S(=O)(=O)C(C)(C)C)C2", "Potency": "inactive"}, {"smiles": "CCc1nc(NC(C)(C)C)c2cnn(-c3ccccc3)c2n1", "Potency": "active: 18.4 µM"}]}]}
